Positions count from the first letter of the chain named. The list shows a part of the results.
T1: RBFOX1 RRM RbFoxmut (Fox-RRM*) (Homo sapiens, UniProt Q9NWB1 109-208, R118D;E147R;N151S;E152T)
T1 sequence: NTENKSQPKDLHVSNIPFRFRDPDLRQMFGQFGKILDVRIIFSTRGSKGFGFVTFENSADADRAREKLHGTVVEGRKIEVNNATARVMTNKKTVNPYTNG

B1: GUAAAUG (DNA:RNA)
RNA: GGGAGACCGGAAUUCAGAUUGUCCGUAAAUGUUAAAUCCCGUCGUAGCCACCA
DNA 1: CAATCTGAATTCCGGTCTCCC
DNA 2: TGGTGGCTACGACGGGATT
B2: UUCCGCC (DNA:RNA)
RNA: B1 RNA with G25U, A27C, A28C, A29G, U30C, G31C
DNA 1: CAATCTGAATTCCGGTCTCCC
DNA 2: TGGTGGCTACGACGGGATT
B3: AUACUUG (DNA:RNA)
RNA: B1 RNA with G25A, A28C, A29U
DNA 1: CAATCTGAATTCCGGTCTCCC
DNA 2: TGGTGGCTACGACGGGATT
B4: CACUUAG (DNA:RNA)
RNA: B1 RNA with G25C, U26A, A27C, A28U, A29U, U30A
DNA 1: CAATCTGAATTCCGGTCTCCC
DNA 2: TGGTGGCTACGACGGGATT
B5: CAAGGUG (DNA:RNA)
RNA: B1 RNA with G25C, U26A, A28G, A29G
DNA 1: CAATCTGAATTCCGGTCTCCC
DNA 2: TGGTGGCTACGACGGGATT
B6: AUGGCUC (DNA:RNA)
RNA: B1 RNA with G25A, A27G, A28G, A29C, G31C
DNA 1: CAATCTGAATTCCGGTCTCCC
DNA 2: TGGTGGCTACGACGGGATT
B7: UCGCAUU (DNA:RNA)
RNA: B1 RNA with G25U, U26C, A27G, A28C, G31U
DNA 1: CAATCTGAATTCCGGTCTCCC
DNA 2: TGGTGGCTACGACGGGATT
B8: CAGAAGU (DNA:RNA)
RNA: B1 RNA with G25C, U26A, A27G, U30G, G31U
DNA 1: CAATCTGAATTCCGGTCTCCC
DNA 2: TGGTGGCTACGACGGGATT
B9: CUCUUAC (DNA:RNA)
RNA: B1 RNA with G25C, A27C, A28U, A29U, U30A, G31C
DNA 1: CAATCTGAATTCCGGTCTCCC
DNA 2: TGGTGGCTACGACGGGATT
B10: UGUCUGC (DNA:RNA)
RNA: GGGAGACCGGAAUUCAGAUUGUCCUGUCUGCUUAAAUCCCGUCGUAGCCACCA
DNA 1: CAATCTGAATTCCGGTCTCCC
DNA 2: TGGTGGCTACGACGGGATT
B11: GUCGCCU (DNA:RNA)
RNA: B1 RNA with A27C, A28G, A29C, U30C, G31U
DNA 1: CAATCTGAATTCCGGTCTCCC
DNA 2: TGGTGGCTACGACGGGATT
B12: GAUUGAC (DNA:RNA)
RNA: B10 RNA with U25G, G26A, C28U, U29G, G30A
DNA 1: CAATCTGAATTCCGGTCTCCC
DNA 2: TGGTGGCTACGACGGGATT
B13: GCGGCAC (DNA:RNA)
RNA: B1 RNA with U26C, A27G, A28G, A29C, U30A, G31C
DNA 1: CAATCTGAATTCCGGTCTCCC
DNA 2: TGGTGGCTACGACGGGATT
B14: CCAUGGG (DNA:RNA)
RNA: B1 RNA with G25C, U26C, A28U, A29G, U30G
DNA 1: CAATCTGAATTCCGGTCTCCC
DNA 2: TGGTGGCTACGACGGGATT
B15: AUUAAAG (DNA:RNA)
RNA: B1 RNA with G25A, A27U, U30A
DNA 1: CAATCTGAATTCCGGTCTCCC
DNA 2: TGGTGGCTACGACGGGATT
B16: UAAACUA (DNA:RNA)
RNA: B1 RNA with G25U, U26A, A29C, G31A
DNA 1: CAATCTGAATTCCGGTCTCCC
DNA 2: TGGTGGCTACGACGGGATT
B17: UUUGGGU (DNA:RNA)
RNA: B10 RNA with G26U, C28G, U29G, C31U
DNA 1: CAATCTGAATTCCGGTCTCCC
DNA 2: TGGTGGCTACGACGGGATT
B18: ACCACCG (DNA:RNA)
RNA: B1 RNA with G25A, U26C, A27C, A29C, U30C
DNA 1: CAATCTGAATTCCGGTCTCCC
DNA 2: TGGTGGCTACGACGGGATT
B19: AGCAUUG (DNA:RNA)
RNA: B1 RNA with G25A, U26G, A27C, A29U
DNA 1: CAATCTGAATTCCGGTCTCCC
DNA 2: TGGTGGCTACGACGGGATT
B20: AAUUUUU (DNA:RNA)
RNA: B10 RNA with U25A, G26A, C28U, G30U, C31U
DNA 1: CAATCTGAATTCCGGTCTCCC
DNA 2: TGGTGGCTACGACGGGATT

Molecular target: T1, RBFOX1 RRM RbFoxmut (Fox-RRM*)
Assay: EMSA; HiTS-Eq, 1 nM pool, 10 min; buffer printed only for the single-RNA assays: 10 mM Tris pH 7.5, 150 mM NaCl, 3.4 mM EDTA, 0.001% NP-40, 30 C
Details: tags: His6 N-terminal (pET28a); label: 5' 32P
Summary of the method: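 Purified RbFox RRM, wild type or mutant, was incubated for 10 min in 50 µL with 1 nM of a 5′-radiolabelled RNA pool carrying 7 randomized nucleotides, whose flanks were annealed to DNA oligonucleotides, over a series of increasing protein concentrations. Unbound RNA was resolved on 8% native PAGE, cut out, reverse-transcribed, barcoded by PCR and sequenced on an Illumina HiSeq 2500. Relative association constants were derived from changes in read counts for each RNA species versus the control reaction and normalised to the cognate motif.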

Row | Binder | binding signal
1 | B1 | 0.125 KA relative to UGCAUGU
2 | B2 | 0.0939 KA relative to UGCAUGU
3 | B3 | 0.144 KA relative to UGCAUGU
4 | B4 | 0.16 KA relative to UGCAUGU
5 | B5 | 0.119 KA relative to UGCAUGU
6 | B6 | 0.111 KA relative to UGCAUGU
7 | B7 | 0.0901 KA relative to UGCAUGU
8 | B8 | 0.138 KA relative to UGCAUGU
9 | B9 | 0.105 KA relative to UGCAUGU
10 | B10 | 0.147 KA relative to UGCAUGU
11 | B11 | 0.0766 KA relative to UGCAUGU
12 | B12 | 0.109 KA relative to UGCAUGU
13 | B13 | 0.0725 KA relative to UGCAUGU
14 | B14 | 0.0718 KA relative to UGCAUGU
15 | B15 | 0.142 KA relative to UGCAUGU
16 | B16 | 0.0603 KA relative to UGCAUGU
17 | B17 | 0.0998 KA relative to UGCAUGU
18 | B18 | 0.129 KA relative to UGCAUGU
19 | B19 | 0.2 KA relative to UGCAUGU
20 | B20 | 0.0959 KA relative to UGCAUGU

— paper PMC9911399, “Two distinct binding modes provide the RNA-binding protein RbFox with extraordinary sequence specificity”
